Measurements reported in publication PMC4336329 (PLoS ONE, 2015).
About 14,000 (4.5%) of roughly 310,000 compounds showed an effect of 50% or more. The effect is printed as a negative number. The list shows a part of the results.

These compounds were tested against human ether-à-go-go-related gene (hERG) potassium channel (human, UniProt Q12809) (assay: primary screen, population patch clamp on CHO cells stably expressing hERG).
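Note: peak tail current of the secondary pulse compared with the same well before compound.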

Sequence of human ether-à-go-go-related gene (hERG) potassium channel (Q12809 whole entry, looked up): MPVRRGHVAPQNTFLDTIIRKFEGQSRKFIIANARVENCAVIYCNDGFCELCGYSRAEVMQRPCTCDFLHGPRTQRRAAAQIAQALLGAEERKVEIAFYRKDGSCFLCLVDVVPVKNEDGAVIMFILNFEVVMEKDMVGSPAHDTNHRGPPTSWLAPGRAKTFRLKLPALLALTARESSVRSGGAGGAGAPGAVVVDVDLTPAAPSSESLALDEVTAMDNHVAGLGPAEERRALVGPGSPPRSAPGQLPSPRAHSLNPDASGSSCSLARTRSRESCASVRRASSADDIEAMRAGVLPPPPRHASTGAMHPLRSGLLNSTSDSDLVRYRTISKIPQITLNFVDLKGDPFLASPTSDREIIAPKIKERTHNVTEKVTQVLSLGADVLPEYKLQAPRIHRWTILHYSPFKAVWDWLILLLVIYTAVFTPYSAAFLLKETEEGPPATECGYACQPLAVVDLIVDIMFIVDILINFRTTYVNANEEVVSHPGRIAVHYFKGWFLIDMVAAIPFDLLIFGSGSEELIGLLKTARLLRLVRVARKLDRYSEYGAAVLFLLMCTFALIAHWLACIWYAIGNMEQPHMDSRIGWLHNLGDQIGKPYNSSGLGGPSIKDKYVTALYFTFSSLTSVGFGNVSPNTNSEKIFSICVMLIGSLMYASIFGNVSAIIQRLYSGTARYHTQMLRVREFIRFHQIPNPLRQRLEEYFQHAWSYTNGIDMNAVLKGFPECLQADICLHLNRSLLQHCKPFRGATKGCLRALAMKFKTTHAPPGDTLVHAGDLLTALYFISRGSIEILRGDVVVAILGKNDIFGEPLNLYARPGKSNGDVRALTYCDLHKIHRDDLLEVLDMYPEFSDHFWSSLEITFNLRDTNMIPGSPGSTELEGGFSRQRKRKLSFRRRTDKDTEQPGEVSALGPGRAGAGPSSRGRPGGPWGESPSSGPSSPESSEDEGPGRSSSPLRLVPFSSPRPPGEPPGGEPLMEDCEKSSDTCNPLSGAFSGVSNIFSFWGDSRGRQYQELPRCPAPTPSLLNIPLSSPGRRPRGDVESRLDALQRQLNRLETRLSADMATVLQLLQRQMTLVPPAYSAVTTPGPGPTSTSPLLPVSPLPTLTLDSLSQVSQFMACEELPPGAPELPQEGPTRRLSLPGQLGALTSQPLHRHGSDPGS

| SMILES | hERG current change (%, negative = inhibition) at 10uM [%] |
| --- | --- |
| O=C(CSc1nc(=O)n(CCN2CCOCC2)c2c1CCCC2)Nc1ccc([N+](=O)[O-])cc1 | -67.6 |
| COc1ccc(OC)c(NC(=O)/C=C/c2ccccc2[N+](=O)[O-])c1 | -15 |
| COc1ccc(N(CC(=O)Nc2cccc(F)c2)S(=O)(=O)c2c(C)[nH]c(=O)[nH]c2=O)cc1 | 22.8 |
| CCOC(=O)C1=C(C)C(c2ccccc2)NC(=S)N1 (centres unmarked) | -0.524 |
| C=CCn1c(SCC(=O)C(C)(C)C)nnc1-c1cccs1 | -14.3 |
| CCOC(=O)c1c(S(=O)(=O)Nc2ccccn2)c(C)n(C)c1C | 4.84 |
| CCN(CC)S(=O)(=O)c1ccc(N2CCOCC2)c(NC(=O)COc2ccccc2C)c1 | 8.22 |
| O=C(c1ccc(S(=O)(=O)N2CCCC2)cc1)N1CCCC(C(F)(F)F)C1 (centres unmarked) | -1.99 |
| Cc1ncsc1CCSc1n[nH]c(=O)n1-c1ccccc1 | 1.72 |
| Cc1cccc(NC(=S)NC(=O)CCc2ccccc2)c1 | -0.586 |
| O=C(CN1CCCC1)NCC(=O)Nc1ccc(F)cc1 | 8.87 |
| O=C(O)C(=O)O.c1cc2c(cc1CN1CCN(C3CCCCCC3)CC1)OCO2 | -30 |
| Cc1oc(CSCC2CCCO2)cc1C(=O)O (centres unmarked) | 3.13 |
| O=C(O)CCCCCCNC(=O)c1cncc(O)c1 | 17.3 |
| Cc1ccccc1CSc1nnc(C)n1N | -16.4 |
| CCOCCCNC(=O)Cn1cnc2c(cnn2-c2ccc(OC)cc2)c1=O | -14.5 |
| O=C(N/N=C/c1ccc(Br)s1)c1ccccn1 | -13 |
| CCn1c(SCC(=O)OC(C)C)nnc1-c1cccc(Cl)c1 | -13.6 |
| CCN(CCNC(=O)C1CCN(Cc2nc(-c3ccc(Cl)cc3)oc2C)CC1)c1ccccc1 | -65.9 |
| Cc1ccc(S(=O)(=O)N2CCCC(C(=O)NNCC(=O)Nc3cc(F)ccc3F)C2)cc1 (centres unmarked) | -41.7 |
| Cc1ccc(CSCC(=O)N(C)CC(=O)Nc2ccccc2C(F)(F)F)cc1 | -0.53 |
| Cn1nc(NC(=O)CC23CC4CC(CC(C4)C2)C3)c2c(F)cccc21 | 9.37 |

| SMILES | hERG current change (%, negative = inhibition) at 10uM [%] |
| --- | --- |
| CN1CCN(Cc2cccc(Oc3ccccc3)c2)CC1 | -28.2 |
| O=C(CSc1ncccn1)NC(=O)Nc1ccc2c(c1)OCCO2 | -6.64 |
| CC(C)c1cc(C(N)=O)c(NC(=O)C2CCC2)s1 | -14.7 |
| Cc1ccc(C)n1-c1ncn[nH]1 | 11 |
| CC(=O)N/N=C(\C)CC(=O)Nc1cccc2c1CCCC2 | 11 |
| Cc1cccc(N2CCN(Cc3nc(C4CC4)no3)CC2)n1 | -4.45 |
| COc1ccc(C(=O)NC(=S)N(C)C2CCCCC2)cc1 | 15.6 |
| N#C/C(=C\c1ccc(N2CCOCC2)o1)C(=O)NCCc1ccccc1 | -57.9 |
| Cn1c(SCCCC(=O)c2ccc(F)cc2)nnc1-c1ccncc1 | -59.6 |
| CCC(C)c1c(O)nc(SCC(=O)c2ccccc2)[nH]c1=O (centres unmarked) | 22.3 |
| COc1ccc(NS(=O)(=O)c2ccc(NC(=S)NC(=O)c3ccc(Br)cc3)cc2)nn1 | -6.77 |
| CC(=O)COc1ccc2c(-c3cccc([N+](=O)[O-])c3)cc(=O)oc2c1 | -25.9 |
| CC1CCN(C(=O)CSc2nc(=O)n3cc(Cl)ccc3n2)CC1 | -14.3 |
| COc1ncnc(OC)c1NC(=O)c1ccc(F)cc1 | 6.88 |
| COc1cccc(CN2CCN(C3CCN(c4cccc(C)c4C)CC3)CC2CCO)c1 (centres unmarked) | -66.2 |
| C/C(=N\NC(=O)c1cc(C)oc1C)c1ccc(C)c([N+](=O)[O-])c1 | 7.87 |
| COC(=O)C(Cc1ccccc1)NS(=O)(=O)c1ccc(F)cc1Br (centres unmarked) | -8.54 |
| COc1ccc(N(C(=O)/C=C/C(=O)Nc2cc(C)on2)C(C(=O)NC2CCCC2)c2ccccc2C)cc1 (centres unmarked) | -1.3 |
| CC(C(=O)N1CCOCC1)n1cc([N+](=O)[O-])cn1 (centres unmarked) | 15.9 |
| O=C(CSc1ccc2nnc(-c3ccccc3)n2n1)N1CCCc2ccccc21 | -62.7 |
| Cc1cc(Nc2ccccc2O)c2ccccc2n1.Cl | -18.6 |
| Cc1c(C(C)NC(=O)c2ccc3nc(Cc4ccccc4F)oc3c2)cnn1C (centres unmarked) | 12.2 |
